Laboratory results as given in PubChem BioAssay (NCATS).
The inconclusive results got no clear call from the source; some entries with a clear call stand among them for comparison. For part of these data: Potencies of inconclusive entries are left out as doubtful fits. Calls of active or inactive are those of the source. Calls follow the shape of the dose curve; as a rule, active = well fitted inhibition curve with a large enough effect; inconclusive = small, poorly fitted or top-dose-only effect; inactive = no such curve, though single readings can be large or run the other way.

Experiment: BET inhibitor-based combinations targeting novel dependencies in MECOM-rearranged (r) AML: OCI-AML3 cell line (AID 2202232); also: nearly all actives have a fitted effect of over 35% in size
Settings: CellTiter-Glo luminescence, 48 h; Potency: OCI-AML3 viability; series mostly up to 46 µM
Procedure, shortened: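 Each compound was tested at eleven concentrations on cells seeded at 500/well. After two days' incubation, ATP-based luminescence reported viability; responses relative to DMSO and blank wells yielded AUC and cell-line-centred Z-AUC.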
Potency is read from the fitted curve at half-maximal effect; tags tell the direction and shape of the fitted curve.

Question: For C/C1=C/C[C@@H](/C(C)=C/c2csc(C)n2)OC(=O)C[C@H](O)C(C)(C)C(=O)[C@H](C)[C@@H](O)[C@@H](C)CCC1, which Potency is on record?
Answer: Its Potency is active: 0.059 µM.

Question: For CN1[C@H]2CC(O)C[C@H]1[C@H]1O[C@H]12 (stereo not given in full), which Potency is on record?
Answer: The Potency was “inactive”.

Question: Which Potency does the source give for C/C(O)=C(\C#N)C(=O)Nc1cc(Br)ccc1Br here?
Answer: The Potency was “inactive”.

Experiment: BET inhibitor-based combinations targeting novel dependencies in MECOM-rearranged (r) AML: MV-4-11 cell line (AID 2202233); also: nearly all actives have a fitted effect of over 45% in size
Settings: MV-4-11 AML viability, CellTiter-Glo luminescence, 48 h; series mostly up to 46 µM
Procedure, shortened: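 First, 500 cells per well were seeded; next, drugs were pinned as 11-point doses; then plates sat 48 hr in the incubator; finally CellTiter-Glo was added and luminescence read, with AUC and Z-AUC computed.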

Question: Which Potency does the source give for O=c1cccc2n1CC1CNC[C@H]2C1 here?
Answer: The Potency was inconclusive [inhibitor, full curve, poor fit].

Question: For CCNC(=O)CC1N=C(c2ccc(Cl)cc2)c2cc(OC)ccc2-n2c(C)nnc21 (stereo not given), which Potency is on record?
Answer: Its Potency is inconclusive [inhibitor, partial curve, poor fit].

Question: With O=C(CBr)N1CC([N+](=O)[O-])([N+](=O)[O-])C1 as the compound, how does the Potency read?
Answer: Its Potency is active: 34 µM.

Question: With CCOC(=O)c1c(C(C#N)=CN)c2ccc(Cl)c(Cl)c2n1C as the compound, how does the Potency read?
Answer: The Potency was inconclusive [inhibitor, full curve, poor fit].

Question: Which Potency does the source give for Cc1c(N)nc([C@H](CC(N)=O)NC[C@@H](N)C(N)=O)nc1C(=O)N[C@H](C(=O)N[C@@H](C)[C@H](O)[C@@H](C)C(=O)N[C@@H](C(=O)NCCc1nc(-c2nc(C(=O)NCCC[S+](C)C)cs2)cs1)[C@@H](C)O)C(O[C@H]1O[C@H](CO)[C@H](O)[C@@H](O)[C@H]1O[C@H]1O[C@H](CO)[C@@H](O)[C@H](OC(N)=O)[C@@H]1O)c1cnc[nH]1 (stereo not given in full) here?
Answer: Its Potency is active: 4.56 µM.

Question: With C[C@H](Nc1ncnc2nc[nH]c12)c1nc2ccc(F)cc2c(=O)n1-c1ccccc1 as the compound, how does the Potency read?
Answer: The Potency was inconclusive [inhibitor, partial curve, poor fit].

Question: With O=C(Oc1ccc([N+](=O)[O-])cc1)N1CCN(Cc2cccc(Oc3ccccc3)c2)CC1 as the compound, how does the Potency read?
Answer: Its Potency is inconclusive [inhibitor, partial curve, poor fit].

Question: With O=C1C=CC[C@@H]2[C@H]3CCCN4CCC[C@@H](CN12)[C@@H]34 as the compound, how does the Potency read?
Answer: Its Potency is “inactive”.

Question: For O=C(O)CNC(=O)c1c(O)c2ccccc2n(Cc2ccccc2)c1=O, which Potency is on record?
Answer: The Potency was “inactive”.

Question: With COC12C(COC(N)=O)C3=C(C(=O)C(C)=C(N)C3=O)N1CC1C2N1C (stereo not given) as the compound, how does the Potency read?
Answer: Its Potency is “inactive”.

Question: Which Potency does the source give for CC1(C)CC[C@]2(NC(=O)C(C)(F)F)CC[C@]3(C)[C@H](C(=O)C=C4[C@@]5(C)C=C(C#N)C(=O)C(C)(C)[C@@H]5CC[C@]43C)[C@@H]2C1 here?
Answer: The Potency was active: 1.18 µM.

Question: Which Potency does the source give for NN=C(N)N here?
Answer: The Potency was “inactive”.
